Measurements as given in patent publication US20210147571A1, “MONOCLONAL ANTIBODY TARGETING HUMAN TUMOR STEM CELLS AND USE THEREOF” (Suzhou Bojuhua Biomedical Technology Co. Ltd, priority 2017, published 2021).

Tests used:
Bel7402-V13 cells = assay: flow immunofluorescence, positive cells in parental and sphere cells; assay type: binding, human
Protocol: (§1) The human liver cancer cell line Bel7402-V13 and MHCC97L cells were cultured for 5 days in a serum-free manner, and the Hetumomab^+ cells in the parental cells and in the cells from sphere culture were detected by viable cell flow fluorescence cytometry. […] That is, after serum-free culture, Hetumomab^+ cells of the liver cancer cell line were enriched.
(§2) As described above, four cell lines, SNU-5, BGC-823, MHCC-97L, and BEL7402 V13, were used to harvest both parental cells and tumor-stem-cell-rich sphere cells. […] The results are as follows:
(§3) According to the aforementioned method, four cell lines, SNU-5, BGC-823, MHCC-97L, and BEL7402 V13, were used to harvest both parental cells and tumor-stem-cell-rich sphere cells. […]

MHCC97L cells = assay: as above; assay type: binding, human; settings: MHCC-97L
Protocol: as §1, §2, §3

BGC-823 cells = assay: as above; assay type: binding, human
Protocol: as §1, with “gastric” for “liver”, “SNU-5” for “Bel7402-V13”, “BGC-823” for “MHCC97L”, “after the” for “after”
as §2, §3

SNU-5 cells = assay: as above; assay type: binding, human
Protocol: as §1, with “gastric” for “liver”, “SNU-5” for “Bel7402-V13”, “BGC-823” for “MHCC97L”, “after the” for “after”
as §2, §3

BGC-823 sphere cells = assay: sphere-forming inhibition (self-renewal); assay type: cell-based, human
Protocol: (§4) The main manifestation of the self-renewal ability of tumor stem cells is the ability to form spheres in serum-free medium, which is called asymmetric division, that is, when one cell divides into two daughter cells, one of the daughter cells maintains the same features as the parental cell, while the other daughter cell may continue to divide, forming normal daughter cells. […] And then Hetumomab (250 μg/mL) was used as the experimental group, and the PBS was used as a negative control group to incubate with the cells at 37° C. for 2 h, during which the cells were mixed with the antibody or the negative control once every half an hour. 500 cells in each group were inoculated into a semi-solid sphere medium (containing EGF, LIF, bFGF, etc.) containing 0.8% methylcellulose, and cultured in an ultra-low adhesion 24-well plate. 1-1.5 mL liquid medium was added every other day, and the number of spheres formed from the two groups was observed after 14 days.

Bel7402-V13 sphere cells = assay: sphere-forming inhibition (self-renewal); assay type: cell-based, human
Protocol: as §4

MHCC-97L sphere cells = assay: sphere-forming inhibition (self-renewal); assay type: cell-based, human
Protocol: as §4

SNU-5 sphere cells = assay: sphere-forming inhibition (self-renewal); assay type: cell-based, human
Protocol: as §4

[1] = BGC-823, antibody 10 ug/ml, Table 27
[2] = BGC-823, antibody 10 ug/ml, Table 33
[3] = BGC-823, antibody 20 ug/ml, Table 27
[4] = BGC-823, antibody 20 ug/ml, Table 33
[5] = BGC-823, antibody 40 ug/ml, Table 27
[6] = BGC-823, antibody 40 ug/ml, Table 33
[7] = BGC-823, antibody 80 ug/ml, Table 27
[8] = BGC-823, antibody 80 ug/ml, Table 33
[9] = BGC-823, antibody 144 ug/ml, Table 27
[10] = BGC-823, antibody 160 ug/ml, Table 33
[11] = BEL7402 V13, antibody 10 ug/ml, Table 27
[12] = BEL7402 V13, antibody 10 ug/ml, Table 33
[13] = BEL7402 V13, antibody 20 ug/ml, Table 27
[14] = BEL7402 V13, antibody 20 ug/ml, Table 33
[15] = BEL7402 V13, antibody 40 ug/ml, Table 27
[16] = BEL7402 V13, antibody 40 ug/ml, Table 33
[17] = BEL7402 V13, antibody 80 ug/ml, Table 27
[18] = BEL7402 V13, antibody 80 ug/ml, Table 33
[19] = BEL7402 V13, antibody 144 ug/ml, Table 27
[20] = BEL7402 V13, antibody 160 ug/ml, Table 33
[21] = SNU-5, antibody 10 ug/ml, Table 27
[22] = SNU-5, antibody 10 ug/ml, Table 33
[23] = SNU-5, antibody 20 ug/ml, Table 27
[24] = SNU-5, antibody 20 ug/ml, Table 33
[25] = SNU-5, antibody 40 ug/ml, Table 27
[26] = SNU-5, antibody 40 ug/ml, Table 33
[27] = SNU-5, antibody 80 ug/ml, Table 27
[28] = SNU-5, antibody 80 ug/ml, Table 33
[29] = SNU-5, antibody 144 ug/ml, Table 27
[30] = SNU-5, antibody 160 ug/ml, Table 33

B1: Hetuximab: human-mouse chimeric antibody derived from Hetumomab; heavy chain SEQ ID NO:9, light chain SEQ ID NO:10 (antibody)
heavy: QVTLKESGPGILQPSQTLSLTCSFSGFSLSTSGMGVSWIRQPSGKGLEWLAHIYWDDDKRYNPSLKSRLTISKDSSNNQVFLKITSVDTADTATYYCARSFYYYANNSFAYWGQGTLVTVSS[human IgG1 constant region left out here]
light: DIVMTQAAFSNPVTLGTSASISCRSSKSLLHSNGITYLYWFLQKPGQSPQLLIYQMSNLASGVPDRFSSSGSGTDFTLRISRVEAEDVGVYYCAQNLELYTFGGGTKLEIKRTVAAPSVFIFPPSDEQLKSGTASVVCLLNNFYPREAKVQWKVDNALQSGNSQESVTEQDSKDSTYSLSSTLTLSKADYEKHKVYACEVTHQGLSSPVTKSFNRGEC
modifications: Hetuximab chimeric antibody heavy chain amino acid sequence; Hetuximab chimeric antibody light chain amino acid sequence
- positive rate, Parental Cells (Bel7402-V13 cells; BEL7402 V13, Table 26): 8.15%
- positive rate, Sphere Cells (Bel7402-V13 cells; BEL7402 V13, Table 26): 11.9%
- positive rate, Parent (Bel7402-V13 cells; BEL7402 V13, Table 32): 7.94% and 6.47%
- positive rate, Sphere (Bel7402-V13 cells; BEL7402 V13, Table 32): 14.13% and 11.83%
- positive rate, Parental Cells (MHCC97L cells; Table 26): 5.18%
- positive rate, Sphere Cells (MHCC97L cells; Table 26): 11.8%
- positive rate, Parent (MHCC97L cells; Table 32): 6.80% and 8.21%
- positive rate, Sphere (MHCC97L cells; Table 32): 13.79% and 18.47%
- positive rate, Parental Cells (BGC-823 cells; BGC-823, Table 26): 5.5%
- positive rate, Sphere Cells (BGC-823 cells; BGC-823, Table 26): 6.8%
- positive rate, Parent (BGC-823 cells; BGC-823, Table 32): 4.12% and 3.28%
- positive rate, Sphere (BGC-823 cells; BGC-823, Table 32): 6.55% and 5.39%
- positive rate, Parental Cells (SNU-5 cells; SNU-5, Table 26): 7.92%
- positive rate, Sphere Cells (SNU-5 cells; SNU-5, Table 26): 11%
- positive rate, Parent (SNU-5 cells; SNU-5, Table 32): 4.35% and 3.68%
- positive rate, Sphere (SNU-5 cells; SNU-5, Table 32): 7.66% and 6.24%
- Average number of formed spheres (BGC-823 sphere cells; [1]): 201
- Inhibition Rate (%) (BGC-823 sphere cells; [1]): 15.2%
- Average number of formed spheres (BGC-823 sphere cells; [2]): 208.5
- Inhibition Rate (%) (BGC-823 sphere cells; [2]): 17.6%
- Average number of formed spheres (BGC-823 sphere cells; [3]): 183
- Inhibition Rate (%) (BGC-823 sphere cells; [3]): 22.8%
- Average number of formed spheres (BGC-823 sphere cells; [4]): 187
- Inhibition Rate (%) (BGC-823 sphere cells; [4]): 26.1%
- Average number of formed spheres (BGC-823 sphere cells; [5]): 161.5
- Inhibition Rate (%) (BGC-823 sphere cells; [5]): 31.9%
- Average number of formed spheres (BGC-823 sphere cells; [6]): 167
- Inhibition Rate (%) (BGC-823 sphere cells; [6]): 34.0%
- Average number of formed spheres (BGC-823 sphere cells; [7]): 148
- Inhibition Rate (%) (BGC-823 sphere cells; [7]): 37.6%
- Average number of formed spheres (BGC-823 sphere cells; [8]): 150.5
- Inhibition Rate (%) (BGC-823 sphere cells; [8]): 40.5%
- Average number of formed spheres (BGC-823 sphere cells; [9]): 132
- Inhibition Rate (%) (BGC-823 sphere cells; [9]): 44.3%
- Average number of formed spheres (BGC-823 sphere cells; [10]): 131
- Inhibition Rate (%) (BGC-823 sphere cells; [10]): 48.2%
- Average number of formed spheres (Bel7402-V13 sphere cells; [11]): 190
- Inhibition Rate (%) (Bel7402-V13 sphere cells; [11]): 16.3%
- Average number of formed spheres (Bel7402-V13 sphere cells; [12]): 195.5
- Inhibition Rate (%) (Bel7402-V13 sphere cells; [12]): 15.0%
- Average number of formed spheres (Bel7402-V13 sphere cells; [13]): 169.5
- Inhibition Rate (%) (Bel7402-V13 sphere cells; [13]): 25.3%
- Average number of formed spheres (Bel7402-V13 sphere cells; [14]): 175
- Inhibition Rate (%) (Bel7402-V13 sphere cells; [14]): 23.9%
- Average number of formed spheres (Bel7402-V13 sphere cells; [15]): 143.5
- Inhibition Rate (%) (Bel7402-V13 sphere cells; [15]): 36.8%
- Average number of formed spheres (Bel7402-V13 sphere cells; [16]): 148
- Inhibition Rate (%) (Bel7402-V13 sphere cells; [16]): 35.7%
- Average number of formed spheres (Bel7402-V13 sphere cells; [17]): 124
- Inhibition Rate (%) (Bel7402-V13 sphere cells; [17]): 45.4%
- Average number of formed spheres (Bel7402-V13 sphere cells; [18]): 127
- Inhibition Rate (%) (Bel7402-V13 sphere cells; [18]): 44.8%
- Average number of formed spheres (Bel7402-V13 sphere cells; [19]): 106
- Inhibition Rate (%) (Bel7402-V13 sphere cells; [19]): 53.3%
- Average number of formed spheres (Bel7402-V13 sphere cells; [20]): 103
- Inhibition Rate (%) (Bel7402-V13 sphere cells; [20]): 55.2%
- Average number of formed spheres (MHCC-97L sphere cells; antibody 10 ug/ml, Table 27): 191.5
- Inhibition Rate (%) (MHCC-97L sphere cells; antibody 10 ug/ml, Table 27): 17.5%
- Average number of formed spheres (MHCC-97L sphere cells; antibody 10 ug/ml, Table 33): 201
- Inhibition Rate (%) (MHCC-97L sphere cells; antibody 10 ug/ml, Table 33): 16.6%
- Average number of formed spheres (MHCC-97L sphere cells; antibody 20 ug/ml, Table 27): 169.5
- Inhibition Rate (%) (MHCC-97L sphere cells; antibody 20 ug/ml, Table 27): 26.9%
- Average number of formed spheres (MHCC-97L sphere cells; antibody 20 ug/ml, Table 33): 175.5
- Inhibition Rate (%) (MHCC-97L sphere cells; antibody 20 ug/ml, Table 33): 27.2%
- Average number of formed spheres (MHCC-97L sphere cells; antibody 40 ug/ml, Table 27): 152
- Inhibition Rate (%) (MHCC-97L sphere cells; antibody 40 ug/ml, Table 27): 34.5%
- Average number of formed spheres (MHCC-97L sphere cells; antibody 40 ug/ml, Table 33): 159
- Inhibition Rate (%) (MHCC-97L sphere cells; antibody 40 ug/ml, Table 33): 34.0%
- Average number of formed spheres (MHCC-97L sphere cells; antibody 80 ug/ml, Table 27): 140
- Inhibition Rate (%) (MHCC-97L sphere cells; antibody 80 ug/ml, Table 27): 39.7%
- Average number of formed spheres (MHCC-97L sphere cells; antibody 80 ug/ml, Table 33): 146
- Inhibition Rate (%) (MHCC-97L sphere cells; antibody 80 ug/ml, Table 33): 39.4%
- Average number of formed spheres (MHCC-97L sphere cells; antibody 144 ug/ml, Table 27): 120
- Inhibition Rate (%) (MHCC-97L sphere cells; antibody 144 ug/ml, Table 27): 48.3%
- Average number of formed spheres (MHCC-97L sphere cells; antibody 160 ug/ml, Table 33): 117
- Inhibition Rate (%) (MHCC-97L sphere cells; antibody 160 ug/ml, Table 33): 51.5%
- Average number of formed spheres (SNU-5 sphere cells; [21]): 175
- Inhibition Rate (%) (SNU-5 sphere cells; [21]): 17.8%
- Average number of formed spheres (SNU-5 sphere cells; [22]): 207
- Inhibition Rate (%) (SNU-5 sphere cells; [22]): 15.6%
- Average number of formed spheres (SNU-5 sphere cells; [23]): 161.5
- Inhibition Rate (%) (SNU-5 sphere cells; [23]): 24.2%
- Average number of formed spheres (SNU-5 sphere cells; [24]): 183.5
- Inhibition Rate (%) (SNU-5 sphere cells; [24]): 25.1%
- Average number of formed spheres (SNU-5 sphere cells; [25]): 145.5
- Inhibition Rate (%) (SNU-5 sphere cells; [25]): 31.7%
- Average number of formed spheres (SNU-5 sphere cells; [26]): 169.5
- Inhibition Rate (%) (SNU-5 sphere cells; [26]): 30.8%
- Average number of formed spheres (SNU-5 sphere cells; [27]): 134
- Inhibition Rate (%) (SNU-5 sphere cells; [27]): 37.1%
- Average number of formed spheres (SNU-5 sphere cells; [28]): 149.5
- Inhibition Rate (%) (SNU-5 sphere cells; [28]): 38.0%
- Average number of formed spheres (SNU-5 sphere cells; [29]): 114.5
- Inhibition Rate (%) (SNU-5 sphere cells; [29]): 46.2%
- Average number of formed spheres (SNU-5 sphere cells; [30]): 120
- Inhibition Rate (%) (SNU-5 sphere cells; [30]): 51.0%

Several values for one entry are separate records, joined by “and”; a condition that tells them apart may be missing. Equal values may be shown once.
